The list shows a part of the results.

This assay has as its target T1, OsWOX13 (Oryza sativa, UniProt Q5QMM3 1-267).
T1 sequence: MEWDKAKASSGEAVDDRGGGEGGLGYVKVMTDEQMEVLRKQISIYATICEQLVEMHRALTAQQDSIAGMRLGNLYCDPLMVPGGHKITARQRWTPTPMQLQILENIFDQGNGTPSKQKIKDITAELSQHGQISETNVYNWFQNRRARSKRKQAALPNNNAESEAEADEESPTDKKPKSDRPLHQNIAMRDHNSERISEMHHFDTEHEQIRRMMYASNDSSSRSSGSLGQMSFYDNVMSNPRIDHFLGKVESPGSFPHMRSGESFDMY
Description: protein-binding microarray (RPBM); PBS, 2% BSA, 51.3 ng/ul salmon testes DNA, 50 uM zinc acetate, 200 nM TF, 25 C, 1 h; high values mean tight binding. The conditions noted are these: protein: recombinant; tags: N-terminal polyhistidine and DsRed monomer fusion (pET32a); label: CyDye5-dUTP incorporated in the synthesized complementary strand; 3' TTTTT single-stranded linker to array surface; dsDNA, one strand shown. An outline of the steps: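 Binding signal is reported as fluorescence intensity per feature (arbitrary units) from an Axon 4000B scanner. Incubation used 200 nM of each Ni–NTA-purified, N-terminally polyhistidine- and DsRed-fused transcription factor from E. coli BL21-CodonPlus on a double-stranded custom Agilent array for 1 h at 25 °C, with 50 µM zinc acetate in the buffer, followed by washing.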
In the case of “CTCTGATTAGATGGGTTATAAAGCATGACACTGATAATTTCGGAGTCACCTAGTGCAG”, the binding signal was 24500 fluorescence intensity (a.u.).
For the sequence “ATTTGATTCGCTTAATGTAAAGAAGTTTGATGGTAAGCTCCGGAGTCACCTAGTGCAG”, the binding signal is 4390 fluorescence intensity (a.u.).
Then “AGAAATATATCGATCAATCAAATTTTGGCATGTATGTGAGCGGAGTCACCTAGTGCAG”, with 10600 fluorescence intensity (a.u.); and “ACCAAATTAAAATGTACCCCTCTTCTTCCTACAAGTAGTACGGAGTCACCTAGTGCAG”, with 7140 fluorescence intensity (a.u.).
For “GCTAATAACGGATTAATTAGACTTAATATATTCGTCTTTTCGGAGTCACCTAGTGCAG”, the binding signal is 16100 fluorescence intensity (a.u.).
Then “GTTGATTAATATATAAGGTAGTTATGGTTATATCCGAACTCGGAGTCACCTAGTGCAG”, with 29100 fluorescence intensity (a.u.).
Then “ATTAATTAAAGCTAATTAAACGATGTTGTTTATTAGGCTTCGGAGTCACCTAGTGCAG”, with 58700 fluorescence intensity (a.u.); and “ACCCTTTAATTTATATTCATTGTAATCTAACGGTGTAGCTCGGAGTCACCTAGTGCAG”, with 29200 fluorescence intensity (a.u.); and “TTAGATTGAAATTTTATATAGCCATAGACAACACGATTATCGGAGTCACCTAGTGCAG”, with 27800 fluorescence intensity (a.u.).
The result for “TCCTTTTACAATCCAGTTGCAATCATGTACAAGTTGCAGTCGGAGTCACCTAGTGCAG” reads 3560 fluorescence intensity (a.u.); that for “GATGGATTGTTCACTGATTTCACTGGATCCCTGCACCGTTCGGAGTCACCTAGTGCAG”, 6650 fluorescence intensity (a.u.).
Consider “CGTCGATTAATTTCCCTGGTAAATACGAAATGTTCATGGTCGGAGTCACCTAGTGCAG”, for which the binding signal is 18700 fluorescence intensity (a.u.).
The result for “TAGGAATCAATCATATTATTCATGTTCATTAAAATTTAAGCGGAGTCACCTAGTGCAG” reads 5000 fluorescence intensity (a.u.).
Then “ATATTAACGTATAATTAATTTAAGTTTTAATTATTATAAACGGAGTCACCTAGTGCAG”, with 27800 fluorescence intensity (a.u.); and “GTCGTTAATTTTGACGGTTTACCTGCTGCATTCCTTCTGTCGGAGTCACCTAGTGCAG”, with 15600 fluorescence intensity (a.u.); and “GAAATAATGAACATAGATTTACTGTATTGGCGCCATTAGACGGAGTCACCTAGTGCAG”, with 5720 fluorescence intensity (a.u.).
The result for “CCATCACTAAATTTGTTGTCGTCGAAATTGCAGGCCATATCGGAGTCACCTAGTGCAG” reads 7090 fluorescence intensity (a.u.).
For the sequence “ATTCATGAATATATGAAACCTGATTGCAAATGTGCAAATCCGGAGTCACCTAGTGCAG”, the binding signal is 4970 fluorescence intensity (a.u.).
With “TAGAATTAGCAAAATTTAACAGAATAGCATTGGTAAGAACCGGAGTCACCTAGTGCAG”, the binding signal is 5640 fluorescence intensity (a.u.).
Then “TTTCAATATGATCAAAGATTGGAACTGTGGCTTGCCTTGTCGGAGTCACCTAGTGCAG”, with 5900 fluorescence intensity (a.u.); and “AAGAAAATAAGGGGATTGGGGATGACATGTGGGGCCCACGCGGAGTCACCTAGTGCAG”, with 3930 fluorescence intensity (a.u.).
The result for “TATGATTGGCATGGCCTGAATGGATGGATGAATTTTGGATCGGAGTCACCTAGTGCAG” reads 58500 fluorescence intensity (a.u.); that for “AACATATCACTGAGTGAATTAGTAGAGCATAATCAGATAGCGGAGTCACCTAGTGCAG”, 3570 fluorescence intensity (a.u.).
Then “GGTAACTAAATAAATGGTCTATGATATACTGTGGGAAACACGGAGTCACCTAGTGCAG”, with 7060 fluorescence intensity (a.u.); and “ACTATCAATTCCATCATCTAAACTCTTGAACAAGCCGTCACGGAGTCACCTAGTGCAG”, with 7450 fluorescence intensity (a.u.); and “AGTAACTAAATTATTACAAAACTATAAGTTTTAGAACCAACGGAGTCACCTAGTGCAG”, with 12200 fluorescence intensity (a.u.).
For the sequence “ATAATTGAAAACAATGCCACTATGTGTGTCTCGCTGGCTTCGGAGTCACCTAGTGCAG”, the binding signal was 27500 fluorescence intensity (a.u.).
Then “GCTTGATTCATTAATTCATATGTGTCGTGTACTACTAATCCGGAGTCACCTAGTGCAG”, with 7110 fluorescence intensity (a.u.); and “AATAATTACCAGTACTAGCCCTACACTTCCACTGGCGATCCGGAGTCACCTAGTGCAG”, with 15200 fluorescence intensity (a.u.); and “TGAATAGACTATTAGATTAGCTATAGATGATTTAGAGCCACGGAGTCACCTAGTGCAG”, with 16400 fluorescence intensity (a.u.).
Then “GTCTTAATTATAGGGTTAGTTGAGGCCTCAATTGCAAGCTCGGAGTCACCTAGTGCAG”, with 19600 fluorescence intensity (a.u.); and “AAGTTAGAAACTGTAATTAATTTCGTCGTTGCAACGGTCGCGGAGTCACCTAGTGCAG”, with 8290 fluorescence intensity (a.u.).
As for “TTTTGATAATTGATATGTGCAAACTTAGGGCTGGTCGCGTCGGAGTCACCTAGTGCAG”, the binding signal was 31800 fluorescence intensity (a.u.).
Then “GTGAGATTATTGATGCCGAGTTATCTGCGAATTTTCATGGCGGAGTCACCTAGTGCAG”, with 10500 fluorescence intensity (a.u.).
With “GCAATCAATCAATCAATCATATATCCATATCAAATTAAGCCGGAGTCACCTAGTGCAG”, the binding signal is 61800 fluorescence intensity (a.u.).
Take “GTTGTTGATGATGATTCTAGCGTTTCAATCTGTTGTGGTGCGGAGTCACCTAGTGCAG”: the binding signal was 5260 fluorescence intensity (a.u.).
For the sequence “CATAAATTGGACTATTTTCGAATTTAATGTACGACCTCCCCGGAGTCACCTAGTGCAG”, the binding signal is 22900 fluorescence intensity (a.u.).
Then “TAGCCTAATTGCGCAATTAGCCACCACTAATCACGCAGCGCGGAGTCACCTAGTGCAG”, with 32300 fluorescence intensity (a.u.).
Then “ATTTTATTTATTATAATTAAATCTTTATAAGAAGATCTTACGGAGTCACCTAGTGCAG”, with 4750 fluorescence intensity (a.u.); and “GGAATTGATCATCAATTGAGGGGTTCTGACGGCTAGAATCCGGAGTCACCTAGTGCAG”, with 20700 fluorescence intensity (a.u.); and “TCCTCATCCATCCATCATCCATCTCATCATCAGCAACCAACGGAGTCACCTAGTGCAG”, with 3450 fluorescence intensity (a.u.).
Then “CCACCTCCTACCCAATCATGTACACAAAACTTAACTAGGACGGAGTCACCTAGTGCAG”, with 4860 fluorescence intensity (a.u.); and “CTTACAATTAACACTACTGTCTATGTCTCAATTCATACTACGGAGTCACCTAGTGCAG”, with 3260 fluorescence intensity (a.u.).
Consider “AATGATCAATGCATGATTAATAACTTCTATTGTGTAAACGCGGAGTCACCTAGTGCAG”, for which the binding signal is 14500 fluorescence intensity (a.u.).
The result for “CTATAATTACTATTATTAGTAATCATTGCATGTACAAAGCCGGAGTCACCTAGTGCAG” reads 28200 fluorescence intensity (a.u.); that for “TTTAATGAAAATAATTTTCTCATAAATATCCAATCCAAGACGGAGTCACCTAGTGCAG”, 14700 fluorescence intensity (a.u.).
“AATCACAGATTGCCGAAATTGGATTTTCCCCAATTTGATGCGGAGTCACCTAGTGCAG”: the binding signal is 21300 fluorescence intensity (a.u.).
The result for “TCCATATTAATTGACGTTTTAGATAAGGTTGAGGTCAATTCGGAGTCACCTAGTGCAG” reads 37900 fluorescence intensity (a.u.); that for “CAGAATCAATCAGCCACAAGTCAAGTCGTTTCCAAATGGCCGGAGTCACCTAGTGCAG”, 21800 fluorescence intensity (a.u.).
The result for “ATTGGTGATGACTACAATGATGATATGATGGATGAAGAAGCGGAGTCACCTAGTGCAG” reads 4600 fluorescence intensity (a.u.).
The result for “GCTCGGATTGGACATTTTCTAATACCACGAATCTAAACAGCGGAGTCACCTAGTGCAG” reads 5660 fluorescence intensity (a.u.); that for “TGGATTAATTAGGCTCAATAGATTCATCTCGCGAATTAGTCGGAGTCACCTAGTGCAG”, 14300 fluorescence intensity (a.u.); that for “GCACAATTAATAGATTTGGAGGATATGTCAAACCTTGGGGCGGAGTCACCTAGTGCAG”, 25700 fluorescence intensity (a.u.).
Take “TAAAACACCAGCTAATTAATCAATGTACTGTAAGTTTGTACGGAGTCACCTAGTGCAG”: the binding signal was 6090 fluorescence intensity (a.u.).

The values above are taken from paper PMC7819943, “Rice protein-binding microarrays: a tool to detect cis-acting elements near promoter regions in rice”.
